# Source: PubChem BioAssay (NCATS)
# The inconclusive results got no clear call from the source; some entries with a clear call stand among them for comparison. For some of these results: Potencies beside an inconclusive call are fits to weak or partial responses and may not hold up. For some of these results: A note “side channel” means that the fit belongs to a control or component signal, not to the main read-out. The source made the active and inactive calls. Unless noted, calls follow the shape of the dose curve; as a rule, active = well fitted curve in either direction with a large enough effect (not every such curve was filed as active); inconclusive = small, poorly fitted or top-dose-only effect, or another doubt; inactive = flat fitted curve, though single readings scatter.
# Columns and labels:
# [1] = AP1 Signaling Pathway (AID 357); conditions: ME-180 AP-1-bla reporter, EGF-induced, beta-lactamase ratio, 5 h; at 17.2 µM (top of the series) unless noted;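 also: ME-180 reporter cells stimulated with EGF at its EC50 level; top concentration of the series differs between compounds; % is scaled to controls: 0 for no effect and ±100 for the full control effect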
# Method in brief: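 Titration-series screen for positive or negative modulators of EC50 EGF-induced signaling in ME-180 cells carrying an AP-1-driven beta-lactamase reporter. After 5 hours at 37 degrees Celsius, CCF4 460nm/530nm emission ratio gave %Activity; AC50 values derived.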
# [2] = NFAT Signaling Pathway (AID 444); conditions: Jurkat NFAT-bla M1, carbachol, beta-lactamase ratio, 5 h; at 17.2 µM (top of the series) unless noted;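 also: carbachol stimulus at about its EC50 of 1 µM final; % is scaled to controls: 0 for no effect and ±100 for the full control effect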
# Method in brief: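 Jurkat cells carrying an NFAT-driven β-lactamase reporter and co-transfected muscarinic M1 receptor were treated with compound plus carbachol (1 uM final, an EC50 level) for 5 h at 37 °C. CCF4 loading followed for 1 h at RT; 460/530 nm ratio gave %activity.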
# [3] = Stat Signaling Pathway (AID 446); conditions: ME-180 SIE beta-lactamase reporter, IL-6 stimulated, 5 h; at 7.69 µM (top of the series) unless noted;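 also: ME-180 cervical cancer cells given 40 pM IL-6 alongside compound; SIE-controlled beta-lactamase reporter measured as 460/530 nm FRET emission ratio; top concentration of the series differs between compounds; % is scaled to controls: 0 for no effect and ±100 for the full control effect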
# Method in brief: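 Emission at 460 and 530 nm (excitation 405 nm) reports SIE-controlled beta-lactamase in ME-180 cells. Cells received compound with 40 pM IL-6 for 5 hrs at 37 C; data scaled between 300 pM IL-6 and 125 nM JAK-inhibitor controls.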
# [4] = qHTS Assay for Identification of Small Molecule Agonists for Hypoxia Response Element Signaling Pathway (AID 914; active = well fitted activation curve with a large enough effect in the signal ratio, with a control signal flat, not every such curve was filed as active; inconclusive = small, poorly fitted or top-dose-only effect, or effect the other way, or a change in a side signal; the % refers to the signal ratio; also: potency is read from the fitted curve at half-maximal effect; as to activation: top concentration of the series differs between compounds; % of control where 0% means no effect); conditions: ME-180 (cervical carcinoma) HRE-bla reporter, beta-lactamase ratio, CoCl2, 17 h; activation: hits give high values
# Method in brief: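 HRE-bla ME-180 assay for agonist-like enhancement of an EC50 CoCl2 stimulus: 17 h at 37 degrees Celsius, CCF4 for 2.5 h, ratiometric 460/530 nm signal converted to %Activity and fitted to AC50.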
# [5] = molecular target: Cytochrome P450 2C19 (Homo sapiens) (UniProt P33261); assay: qHTS Assay for Inhibitors and Substrates of Cytochrome P450 2C19 (AID 899; active = well fitted inhibition curve with a large enough effect; inconclusive = small, poorly fitted or top-dose-only effect; inactive = no such curve, though single readings can be large or run the other way; also: top concentration of the series differs between compounds; % is scaled to controls: 0 for no effect and ±100 for the full control effect; nearly all actives have a fitted effect of over 60% in size)
# Method in brief: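 In 50mM KPO4, the reaction held 5nM enzyme and KM-level (10uM) Luciferin-H EGE; it ran 60 min at 37C after NADPH regeneration and a 10 min compound preincubation. Luminescence values were scaled to 57uM ketoconazole as complete inhibition.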
# [6] = molecular target: Cytochrome P450 3A4 (Homo sapiens) (UniProt P08684); assay: qHTS Assay for Inhibitors and Substrates of Cytochrome P450 3A4 (AID 884; active = well fitted inhibition curve with a large enough effect; inconclusive = small, poorly fitted or top-dose-only effect; inactive = no such curve, though single readings can be large or run the other way; also: potency is read from the fitted curve at half-maximal effect; nearly all actives have a fitted effect of over 50% in size)
# Method in brief: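 Luminescent readout of luciferin produced by CYP3A4 (20 nM) dealkylation of Luciferin-PPXE, 25 uM (its KM). NADPH-driven reaction ran 60 min at RT after 10 min compound preincubation; data scaled to 57 uM ketoconazole as 100% inhibition.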
# [7] = molecular target: Cytochrome P450 2C9 (Homo sapiens) (UniProt P11712); assay: qHTS Assay for Inhibitors and Substrates of Cytochrome P450 2C9 (AID 883; active = well fitted inhibition curve with a large enough effect; inconclusive = small, poorly fitted or top-dose-only effect; inactive = no such curve, though single readings can be large or run the other way; also: potency is read from the fitted curve at half-maximal effect; nearly all actives have a fitted effect of over 60% in size); conditions: recombinant CYP2C9, luciferin-H luminescence, 60 min; activity change, negative = inhibition: at 57.1 µM (top of the series)
# Method in brief: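 CYP2C9 deoxyluciferin hydroxylation, 37C, 60 min with NADPH regeneration; 10nM enzyme, 100uM Luciferin-H (KM). Glo detection reagent stopped reaction; luminescence normalized to sulphaphenazole (57uM) full inhibition.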
# [8] = molecular target: Cytochrome P450 2D6 (Homo sapiens) (UniProt P10635); assay: qHTS Assay for Inhibitors and Substrates of Cytochrome P450 2D6 (AID 891; active = well fitted inhibition curve with a large enough effect; inconclusive = small, poorly fitted or top-dose-only effect; inactive = no such curve, though single readings can be large or run the other way;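 also: luciferin methyl ether substrate demethylated by CYP2D6 with NADPH regeneration; potency is read from the fitted curve at half-maximal effect; nearly all actives have a fitted effect of over 60% in size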); conditions: recombinant CYP2D6, luciferin-ME EGE luminescence; activity change, negative = inhibition: at 57.1 µM (top of the series)
# Method in brief: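 Luminescent read-out of luciferin formed by 5 nM human CYP2D6 demethylating 30 uM Luciferin-ME EGE (Km level) over 60 min at room temperature after NADPH regeneration addition. Data normalized to full inhibition by 1.43 uM quinidine.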
# Tags tell the direction and shape of the fitted curve or compound fluorescence and quenching.
# Chain of UniProt P10635 (P10635 whole entry, looked up): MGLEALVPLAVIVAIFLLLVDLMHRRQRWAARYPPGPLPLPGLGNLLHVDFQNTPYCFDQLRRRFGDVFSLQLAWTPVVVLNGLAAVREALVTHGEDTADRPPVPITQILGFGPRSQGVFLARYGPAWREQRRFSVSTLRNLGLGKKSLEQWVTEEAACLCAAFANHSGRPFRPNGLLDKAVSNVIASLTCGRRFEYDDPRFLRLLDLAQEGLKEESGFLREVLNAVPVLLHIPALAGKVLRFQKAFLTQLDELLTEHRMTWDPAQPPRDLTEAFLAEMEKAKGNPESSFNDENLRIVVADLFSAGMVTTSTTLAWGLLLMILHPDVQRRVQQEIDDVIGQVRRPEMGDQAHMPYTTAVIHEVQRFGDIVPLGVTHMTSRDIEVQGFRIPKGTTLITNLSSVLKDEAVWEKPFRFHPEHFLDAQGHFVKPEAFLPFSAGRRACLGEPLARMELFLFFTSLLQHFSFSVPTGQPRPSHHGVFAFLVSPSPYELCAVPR
# Chain of UniProt P11712 (P11712 whole entry, looked up): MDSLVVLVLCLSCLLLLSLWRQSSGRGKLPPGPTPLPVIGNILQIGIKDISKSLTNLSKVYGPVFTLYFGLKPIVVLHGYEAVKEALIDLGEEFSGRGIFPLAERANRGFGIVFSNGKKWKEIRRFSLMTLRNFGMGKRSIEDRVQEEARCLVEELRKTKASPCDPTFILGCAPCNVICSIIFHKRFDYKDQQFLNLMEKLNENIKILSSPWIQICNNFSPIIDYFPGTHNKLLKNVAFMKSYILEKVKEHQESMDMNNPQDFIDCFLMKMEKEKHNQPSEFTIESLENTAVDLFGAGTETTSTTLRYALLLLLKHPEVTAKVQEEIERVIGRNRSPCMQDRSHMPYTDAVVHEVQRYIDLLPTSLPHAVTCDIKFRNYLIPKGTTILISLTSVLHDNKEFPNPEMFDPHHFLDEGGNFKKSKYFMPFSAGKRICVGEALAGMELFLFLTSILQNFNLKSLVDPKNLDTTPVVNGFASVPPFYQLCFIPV
# Chain of UniProt P08684 (P08684 whole entry, looked up): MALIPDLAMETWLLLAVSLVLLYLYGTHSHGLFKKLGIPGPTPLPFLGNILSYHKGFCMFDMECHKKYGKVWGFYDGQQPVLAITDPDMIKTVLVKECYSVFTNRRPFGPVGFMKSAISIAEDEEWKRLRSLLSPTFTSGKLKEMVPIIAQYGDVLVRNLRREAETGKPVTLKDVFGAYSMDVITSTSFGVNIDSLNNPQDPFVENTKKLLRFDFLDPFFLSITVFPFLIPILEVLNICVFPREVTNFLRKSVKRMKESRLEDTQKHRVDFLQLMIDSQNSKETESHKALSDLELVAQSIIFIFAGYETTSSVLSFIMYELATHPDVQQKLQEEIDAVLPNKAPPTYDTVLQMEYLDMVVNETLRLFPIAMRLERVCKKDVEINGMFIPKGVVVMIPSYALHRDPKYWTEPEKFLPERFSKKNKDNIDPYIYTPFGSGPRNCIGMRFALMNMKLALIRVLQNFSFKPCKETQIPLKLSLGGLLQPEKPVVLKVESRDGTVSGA
# Chain of UniProt P33261 (P33261 whole entry, looked up): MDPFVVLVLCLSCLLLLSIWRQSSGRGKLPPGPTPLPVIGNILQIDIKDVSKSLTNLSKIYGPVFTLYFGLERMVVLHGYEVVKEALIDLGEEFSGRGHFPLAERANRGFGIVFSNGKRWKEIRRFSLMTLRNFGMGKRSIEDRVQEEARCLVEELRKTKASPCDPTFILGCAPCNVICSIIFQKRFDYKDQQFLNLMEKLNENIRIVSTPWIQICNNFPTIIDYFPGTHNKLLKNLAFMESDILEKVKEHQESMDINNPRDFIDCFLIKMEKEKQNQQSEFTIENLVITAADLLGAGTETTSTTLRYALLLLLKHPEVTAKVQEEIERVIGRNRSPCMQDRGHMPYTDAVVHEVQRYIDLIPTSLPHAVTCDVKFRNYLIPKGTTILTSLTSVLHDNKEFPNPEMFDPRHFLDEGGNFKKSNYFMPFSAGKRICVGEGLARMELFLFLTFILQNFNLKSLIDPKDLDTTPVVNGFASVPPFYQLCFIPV
smiles,measurement,setting,value
O=c1c(-c2ccc(Cl)cc2)nc2cnc(N3CCOCC3)nc2n1CCc1ccccc1,"activity change, negative = inhibition",[1],active: 87.9% [activator] [at 7.69 µM]
same,"activity change, negative = inhibition",[2],active: 112% [activator] [at 7.69 µM]
same,"activity, negative = inhibition",[3],inconclusive: 150% [activator]
same,Potency,[4],"inconclusive: 0.794 µM [fluorescent, side channel, single point]"
Nc1ncnc2c1ncn2[C@@H]1O[C@H](COP(=O)(O)O)[C@@H](O)[C@@H]1O,"activity change, negative = inhibition",[1],inconclusive: 55.1% [activator]
same,"activity change, negative = inhibition",[2],inactive: -4.61%
same,"activity, negative = inhibition",[3],inconclusive: 67.1% [activator] [at 17.2 µM]
same,Potency,[5],inactive
CN1CCc2c(sc3ncn4nc(-c5ccccc5O)nc4c23)C1,"activity change, negative = inhibition",[1],inconclusive: 37.5% [activator]
same,"activity change, negative = inhibition",[2],inconclusive: -67.7% [inhibitor]
same,"activity, negative = inhibition",[3],inconclusive: 37.5% [activator] [at 17.2 µM]
same,Potency,[4],"inconclusive: 0.794 µM [inhibitor, partial curve]"
O=C1c2ccccc2-c2cc([N+](=O)[O-])c([N+](=O)[O-])cc21,"activity change, negative = inhibition",[1],inconclusive: 72.2% [activator] [at 7.69 µM]
same,"activity change, negative = inhibition",[2],inconclusive: -113% [inhibitor] [at 7.69 µM]
same,"activity, negative = inhibition",[3],inconclusive: -86.2% [inhibitor]
same,Potency,[4],"inconclusive: 2.51 µM [cytotoxic, side channel, single point]"
Nc1nonc1C(=O)NCCN=Cc1cc(Cc2ccccc2)cc(Br)c1O,"activity change, negative = inhibition",[1],inconclusive: -49.9% [inhibitor]
same,"activity change, negative = inhibition",[2],inconclusive: -107% [inhibitor]
same,"activity, negative = inhibition",[3],inconclusive: -53.7% [inhibitor] [at 17.2 µM]
same,Potency,[4],"inconclusive: 2 µM [inhibitor, partial curve, poor fit]"
COc1cccc(Nc2ncc3nc(CCc4ccccc4)c(=O)n(Cc4cccs4)c3n2)c1,"activity change, negative = inhibition",[1],inconclusive: -34.2% [inhibitor] [at 7.69 µM]
same,"activity change, negative = inhibition",[2],inconclusive: -108% [inhibitor] [at 7.69 µM]
same,"activity, negative = inhibition",[3],inactive: -28.9%
same,Potency,[6],"inconclusive: 6.31 µM [inhibitor, partial curve]"
same,Potency,[4],"inconclusive: 3.16 µM [fluorescent, side channel]"
COc1ccc2[nH]cc(CCNc3ncnc4ccc(-c5c(C)noc5C)cc34)c2c1,"activity change, negative = inhibition",[1],inconclusive: -32.2% [inhibitor] [at 7.69 µM]
same,"activity change, negative = inhibition",[2],inconclusive: -45.6% [inhibitor] [at 7.69 µM]
same,"activity, negative = inhibition",[3],inconclusive: -41.3% [inhibitor]
same,Potency,[7],"inconclusive: 0.501 µM [inhibitor, partial curve]"
same,Potency,[8],active: 6.31 µM
same,Potency,[4],"inconclusive: 3.98 µM [activator, single point]"
CCCCN(CCCC)c1nc2ccccc2nc1C(C#N)C(=O)NCCCOC (stereo not given),"activity change, negative = inhibition",[1],inconclusive: -42% [inhibitor]
same,"activity change, negative = inhibition",[2],inconclusive: -91.2% [inhibitor]
same,"activity, negative = inhibition",[3],inconclusive: -29.1% [inhibitor] [at 17.2 µM]
same,Potency,[4],"inconclusive: 12.6 µM [side channel, rising, single point]"
CCCCNC(=O)c1c(N)n(/N=C/c2cccnc2)c2nc3ccccc3nc12,"activity change, negative = inhibition",[1],inactive: -12%
same,"activity change, negative = inhibition",[2],inconclusive: 32.4% [activator]
same,"activity, negative = inhibition",[3],inactive: 16.8% [at 17.2 µM]
same,Potency,[4],"inconclusive: 10 µM [activator, partial curve]"
Cc1ccccc1N1C(=O)CC(Sc2nnc(-c3ccccc3)o2)C1=O (stereo not given),"activity change, negative = inhibition",[1],inconclusive: -71.1% [inhibitor]
same,"activity change, negative = inhibition",[2],inconclusive: -68% [inhibitor]
same,"activity, negative = inhibition",[3],inconclusive: -34% [inhibitor] [at 17.2 µM]
same,Potency,[4],"inconclusive: 12.6 µM [inhibitor, single point]"
Cc1c(O)c(Br)c(C)c(O)c1Br (tested in a mixture with another compound),"activity change, negative = inhibition",[1],inconclusive: -96.2% [inhibitor] [at 7.69 µM]
same,"activity change, negative = inhibition",[2],active: -77.8% [at 7.69 µM]
same,"activity, negative = inhibition",[3],inconclusive: -96.6% [inhibitor]
same,Potency,[4],"inconclusive: 5.01 µM [cytotoxic, side channel, single point]"
CO[C@@H]1CC[C@@]2(C)[C@@H](CC[C@@]3(C)[C@H]2CC=C2[C@H]4CC(C)(C)[C@H](O)[C@@H](OC(C)=O)[C@]4(CO)[C@H](O)C[C@]23C)[C@@]1(C)CO (tested in a mixture with another compound),"activity change, negative = inhibition",[1],inconclusive: -35% [inhibitor]
same,"activity change, negative = inhibition",[2],inconclusive: 9.91% [inhibitor]
same,"activity, negative = inhibition",[3],inconclusive: -67.5% [inhibitor] [at 17.2 µM]
same,Potency,[4],"inconclusive: 7.94 µM [cytotoxic, side channel, partial curve]"
COc1cccc(-c2ccc3ncnc(NCc4ccccc4OC)c3c2)c1,"activity change, negative = inhibition",[1],inconclusive: -84.2% [inhibitor] [at 7.69 µM]
same,"activity change, negative = inhibition",[2],inconclusive: -97.4% [inhibitor] [at 7.69 µM]
same,"activity, negative = inhibition",[3],inconclusive: -64.2% [inhibitor]
same,activation,[4],inconclusive: -64.1%
